In article PMC12136788:
Changes are numbered by the printed parent chain. The list shows a part of the results.

T1: UNK ZnF1-3 (human, UniProt Q9C0B0 31-174)
T1 sequence: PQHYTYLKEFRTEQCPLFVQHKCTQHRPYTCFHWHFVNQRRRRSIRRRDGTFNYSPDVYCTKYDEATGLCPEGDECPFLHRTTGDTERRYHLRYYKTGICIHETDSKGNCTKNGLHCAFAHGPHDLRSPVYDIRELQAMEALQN

B1: chr3:130650941:130650942:+_ENSG00000017260_ENST00000359644|hu_hu|motif|central (ssRNA)
RNA: GGGAGUUCUACAGUCCGACGAUCAAUAAGGGGAUUUUUAAACUGAGAAAUAUACUUCUUCCACAGUGGCUCAUCUUCACGGAUAUCAAACUCAUUCCAGCCAUGAAAGGCUCGCCUAUGACUAACUUCACAUUUGUUUAGACCCAACAGAGGAUUGAGCAUCA
B2: chr10:121347744:121347745:-_ENSG00000151923_ENST00000436547|hu_hu|FALSE|FALSE (ssRNA)
RNA: GGGAGUUCUACAGUCCGACGAUCCAAUCUGACUGAACAACUGAAGUAUAAGGACUUCUGUCACAUCUCUGGAAAGGUUACCUACGUAUAGAGUCCGGGGCUGCCCGUCGUCUUCCAUCAUGGUGGGUGCGACGGAGCGAUCCCCAACAGAGGAUUGAGCAUCA
B3: chr7:65705844:65705845:+_ENSG00000169902_ENST00000304842|hu_mus|hu_hu_hu_mus_False|18_18 (ssRNA)
RNA: GGGAGUUCUACAGUCCGACGAUCAAACGGAUCUUUGUUACAUAAAUAAGGUGCCGGCUCCCCAUGUUUAACAAUGACCUCCAGAAGGAAGGCUUGCAUGGCAGAAUCUAGCACUUCAUCAGUAACACCCGCCUCAUCCAAGCGCAACAGAGGAUUGAGCAUCA
B4: chrX:102930994:102930995:-_ENSG00000123562_ENST00000441076|hu_hu|FALSE|FALSE (ssRNA)
RNA: GGGAGUUCUACAGUCCGACGAUCAUAAGCCCUGUUAUACAUUAACGAUUUUAAAGAACAUCAAUUUUACAAGAAAAAGACUAAGAACAAAAAGUGUUUACAGAUACAGGACAAAAAUGGUGAGCUGUCUGUAGACGCUCACAGCAACAGAGGAUUGAGCAUCA
B5: 213168467_213170549_1645_3pUTR_ENSG00000174606_ENST00000366962|human|control|control (ssRNA)
RNA: GGGAGUUCUACAGUCCGACGAUCUCUUGUUCUGUAAGAAGUGACAGUCUAGCUAGAAGUUUCAAGCCACCAACCAAAGCAACUUCAGCUCCUGGGUGCCCAGCAACAUCUUCCUUUUCUGCAGAGUAGAAAAUAUAAUCCACACAACAGAGGAUUGAGCAUCA
B6: 49087874_49087994_1285_CDS_ENSG00000129315_ENST00000261900|human|control|control (ssRNA)
RNA: GGGAGUUCUACAGUCCGACGAUCGGAAAUAAAUGCAUUUGAACCAUCCUGUGGUAAGGAAUGAUCAACUCCUGUAAGUGCUAAAUUCUCACUAGUCCGAUGACCCUGAGUAGGUUCUAGUUUGAAAGAAGGUUGGGAGGACAGCAACAGAGGAUUGAGCAUCA
B7: chr7:6442117:6442118:+_ENSG00000136238_ENST00000348035|hu_hu|FALSE|FALSE (ssRNA)
RNA: GGGAGUUCUACAGUCCGACGAUCCGUUGUUUUUUUUUUUUGUUUUUUUUUUUUGUUUUUUUUUGAGCAAAGCGUACAAAGGUUCCAAGGGACAGGACCAAGAACGAGGGGCUGAGACAUUUACAACAGCAGGCAUUUUCUCUUCAACAGAGGAUUGAGCAUCA
B8: chr2:48026839:48026840:+_ENSG00000116062_ENST00000540021|hu_hu|hu_hu_hu_mus_False|18_88 (ssRNA)
RNA: GGGAGUUCUACAGUCCGACGAUCAUAGUGAGCCACUAGCGUCCUAAAUCUCGAACAGUGGCGGUCAUCCGAAAACUGGCCGAUGAAAAACUUGCCCAGUGAAGUGUCCACAAAGCACACACCAUAUACACGAGUGUGACCAGACAACAGAGGAUUGAGCAUCA
B9: chr19:8913615:8913616:-_ENSMUSG00000071658_ENSMUST00000096259|mus_hu|mus_mus_mus_hu_False|28_28 (ssRNA)
RNA: GGGAGUUCUACAGUCCGACGAUCAGGGUACCAAAACCUUCUGCCUGAAAUGGGUGCCCCACCCAGUAGGGAGUUGCAGCUGAAAGUAUCUGAUGCAGAAGCAGUGAAUGCAGAGAAGGAGGCCCCUGGGGAGGGCCAGGCCAGCAACAGAGGAUUGAGCAUCA
B10: chr1:160275524:160275525:-_ENSG00000122218_ENST00000241704|hu_mus|FALSE|FALSE (ssRNA)
RNA: GGGAGUUCUACAGUCCGACGAUCACACAGAGCAUCCAGCUUGCGGUUACAGAUCACAAUGGCAUGCUUGGCCAGUAACGCUACAUGAGACAUGUCUGCCGACCAGAUAACAUAUUUCACCUUGGAAAUCUUCACUGAUGCCAGCAACAGAGGAUUGAGCAUCA
B11: 63679155_63681178_641_CDS_ENSMUSG00000028364_ENSMUST00000107372|mouse|control|control (ssRNA)
RNA: GGGAGUUCUACAGUCCGACGAUCCCCAGGGCAGUCAGGCUCAGAGCAGUUGGGGCCUUUCCAGCCUGGUUCACAGACACAGCCGCAGCCUUCUGCACUGAAGUUGCCCCGUCCGCUGCAGAAGGGCCUGGUGUCCAGACGACCCAACAGAGGAUUGAGCAUCA
B12: chr12:16043544:16043545:+_ENSG00000023734_ENST00000419869|hu_hu|FALSE|FALSE (ssRNA)
RNA: GGGAGUUCUACAGUCCGACGAUCUUUGUUCAAGUCAUAUAUGCGUAACAGUUUAUCCUGUCCCCCGGUUAACAAAUAAUUACUAUCCUGCGUGAAAUCCACAGUCUUGACAAUGUGUUUAUGAGCCAGGGUCAUCAAUUCAUCCAACAGAGGAUUGAGCAUCA
B13: chr7:65705844:65705845:+_ENSG00000169902_ENST00000304842|hu_mus|hu_hu_hu_mus_False|1_58 (ssRNA)
RNA: B3 RNA with C77U, C78U, C81U, A84U, G86A, A120U, A123G, A140G
B14: 102142795_102142915_3032_3pUTR_ENSMUSG00000027189_ENSMUST00000102573|mouse|control|control (ssRNA)
RNA: GGGAGUUCUACAGUCCGACGAUCAGAUGUAUUAAAUUCUCCAGUCUUUGCAGACAGAUGGUAAGACACCAAAAUUGUCUAAGCCAUCUACUAGCCACCAGCUGGGGAAAGUAUACAUAUUUUUAGAUCUCACACUCCGCUCUGCAACAGAGGAUUGAGCAUCA
B15: chr2:217001844:217001845:+_ENSG00000079246_ENST00000392132|hu_hu|hu_hu_hu_mus_False|28_78 (ssRNA)
RNA: GGGAGUUCUACAGUCCGACGAUCACCAACUUGAGGAUUAGAUCUUUUGUCAUAAGCAUAUCGAACUAUGGCGACCAUGUUUAACUCAUCCAAAGCAUGAACGAGAGAGGAAAGUGCAACAGCUGCCGCCUCAUCAUCCUUUGCCAACAGAGGAUUGAGCAUCA
B16: chr15:31387667:31387668:-_ENSMUSG00000039100_ENSMUST00000090227|mus_hu|FALSE|FALSE (ssRNA)
RNA: GGGAGUUCUACAGUCCGACGAUCUUUAAUACUAUAUGAAAAUUCUUUUAUAGUUUCUGAAGACCUAUGUUAUACGCUUUCUAUGAGAACUUCUAAAUUAUCGUUCAAAAACAAACACUACCCUUACGAUAUACCUUUAGCAUUCAACAGAGGAUUGAGCAUCA
B17: chr10:13244450:13244451:-_ENSMUSG00000019809_ENSMUST00000019945|mus_mus|motif|central (ssRNA)
RNA: GGGAGUUCUACAGUCCGACGAUCAAGGACACCACAUUCCAUUCCAUAUACGUAUGGAAGUACCUAGUUGGUUUGGAUCAGCGGUCCAGACUUUAAGAAAUCAUGAUUGAUCCUGAUGUAAUUUGUGCACCAGUUAGAUACACCCAACAGAGGAUUGAGCAUCA
B18: 84846757_84848177_410_3pUTR_ENSMUSG00000024644_ENSMUST00000025546|mouse|control|control (ssRNA)
RNA: GGGAGUUCUACAGUCCGACGAUCCUGGCCCCUUAUCGUCCGUGGAGCCUCUCCCAUACAGCUUGCCUUCCCGCUCCACCAAGGUGAAGGGCUCGCUGUCCCACCCGUCCUCCAGGGCCGCAGGCUGCACGUCCAGGUGCCCGUCAACAGAGGAUUGAGCAUCA
B19: 33309428_33316740_2492_CDS_ENSG00000083642_ENST00000450460|human|control|control (ssRNA)
RNA: GGGAGUUCUACAGUCCGACGAUCAAUAGCCUGAAUUUUGACCAUUGUCUCAGGAGAUACUUCUUCAUCUGGAACCCAAAGUUUAGUUGUCUUUUUCCCUGGAAGCCGAUCAUUCAUGAGAAGAUCUUUCACAAUGAAAGUAGCCAACAGAGGAUUGAGCAUCA
B20: chrX:71549762:71549763:+_ENSMUSG00000019087_ENSMUST00000019231|mus_mus|mus_mus_mus_hu_False|58_88 (ssRNA)
RNA: GGGAGUUCUACAGUCCGACGAUCAAACCCGUGUACUUCUUAUUGUUACAUCACCCCCACCAGAAAACGAUAACGACAGCUAAGCUGGACAGACAGUUAAGUAGUACUUCCACACUCCCAAACUCAGGGAGCCCUAUAACCUUACAACAGAGGAUUGAGCAUCA
B21: 99993845_99996167_969_CDS_ENSG00000197894_ENST00000296412|human|control|control (ssRNA)
RNA: GGGAGUUCUACAGUCCGACGAUCUUCUACACUCUUCCAUCCUCCAAAGGCAGUGCCUUUCCAUGUGCGACCUGUUACCAGCUGGAAUGGACGAGUGGCAAUUUCUUCACCUGAAGCAGCUACUCCAACCACGACGCUGACGCCCAACAGAGGAUUGAGCAUCA
B22: chr18:42480448:42480449:+_ENSMUSG00000024491_ENSMUST00000091920|mus_mus|FALSE|FALSE (ssRNA)
RNA: GGGAGUUCUACAGUCCGACGAUCGAAGUGUUCGUUGAGCUUGGUAAUGUUGUUCAAUUCCUGGGGGAUUUUUUUCACCUCUAGUUUGGUGUUUGUAUAAUGAUUCUUCCUCAGGAAGCCUGGUUUACUUUGAUUGUUGUUCCCCAACAGAGGAUUGAGCAUCA

The binders below were run against T1, UNK ZnF1-3 (assay: nsRBNS (natural sequence RNA bind-n-seq); RBNS binding buffer (assumed for nsRBNS): 25 mM Tris pH 7.5, 150 mM KCl, 3 mM MgCl2, 0.01% Triton X-100, 500 ug/ml BSA, 20 U/ml SUPERase-In, 4 C; UNK is unkempt and MSI1 is Musashi-1; names of the RNAs are library labels; protein concentration not given here; high values mean tight binding).
Work on B1 yielded a binding signal of 0.959 enrichment R. Binder B2 has a binding signal of 0.694 enrichment R. With B3 the binding signal was 0.255 enrichment R. B4 showed a binding signal of 0.849 enrichment R. B5 was tested, and the binding signal was 1.01 enrichment R. B6 was tested, and the binding signal was 0.827 enrichment R. Work on B7 yielded a binding signal of 1.5 enrichment R. For B8, the binding signal was 1.13 enrichment R. In the case of B9, the binding signal is reported as 1.52 enrichment R. B10 was tested, and the binding signal was 1.07 enrichment R. For B11, the binding signal was 0.634 enrichment R. For B12, the binding signal was 1.1 enrichment R. With B13 the binding signal was 0.623 enrichment R. B14 was tested, and the binding signal was 0.533 enrichment R. In the case of B15, the binding signal is reported as 1.69 enrichment R. For B16, the binding signal was 0.792 enrichment R. With B17 the binding signal was 0.735 enrichment R. B18 showed a binding signal of 0.714 enrichment R. B19 was tested, and the binding signal was 0.884 enrichment R. In the case of B20, the binding signal is reported as 1.53 enrichment R. B21 gave a binding signal of 0.505 enrichment R. B22 was tested, and the binding signal was 0.356 enrichment R.
